Measurements taken from paper PMC7736783 (Nucleic Acids Research, 2020).

T1: MTA1 ELM2-SANT domain (residues 162–354) (UniProt Q13330 162-354)
T1 construct: The tag held the complex on the FLAG resin; it was cleaved off by TEV protease before gel filtration, SEC-MALS, the Strep-Tactin step and cryo-EM; also called MTA1 wildtype; source: HEK293F, co-transfected, in lysate; co-purified (FLAG resin, TEV protease, Superose 6); not shown: His10-Flag3, N-terminal, kept
T1 sequence (looked up): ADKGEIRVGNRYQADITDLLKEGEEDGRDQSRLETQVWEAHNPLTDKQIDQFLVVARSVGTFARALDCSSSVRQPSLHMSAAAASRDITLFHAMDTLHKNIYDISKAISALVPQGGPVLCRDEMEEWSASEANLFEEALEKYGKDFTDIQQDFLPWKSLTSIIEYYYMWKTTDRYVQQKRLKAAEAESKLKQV


Experiments:
HDAC1 (residues 1–482) = target: T2, HDAC1 (residues 1–482) (UniProt Q13547); test: pull-down; complex co-expressed with Strep-MBD2 and untagged MBD2, purified on FLAG resin, TEV-eluted, gel filtrated (Superose 6), then applied to Strep-Tactin XT Superflow resin, washed five times with buffer C (25 mM Tris-HCl pH 7.5, 75 mM potassium acetate, 0.5 mM TCEP), resin loaded on SDS-PAGE; details: both partners purified
T2 construct: Two copies stand in the HDAC1:MTA1 dimer complex; also called histone deacetylase 1; source: HEK293F, co-transfected, in lysate; co-purified (FLAG resin, TEV protease, Superose 6)

[1] = target: T1, MTA1 ELM2-SANT domain (residues 162–354); test: SEC-MALS; peak fraction of the gel filtration-pure HDAC1:MTA1:MBD2 complex re-run on Superose 6 with refractive index and MALS detectors; details: both partners purified

Row | Binder | binding result (HDAC1 (residues 1–482)) | stoichiometry N [1]
1 | Strep-MBD2 ([…]) (domain or fragment, MBD2, […]; source: HEK293F, co-transfected, in lysate; co-purified (FLAG resin, TEV protease, Superose 6)) GGSGGGGAPRREPVPFPSGSAGPGPRGPRATES[left out - about 60 residues]SKLQKNKQRLRNDPLNQNKGKPDLNTTLPIRQTASIFKQPVTKVTNHPSNKVKSDPQRMNEQPRQLFWEKRLQGLSASDVTEQIIKTMELPKGLQGVGPGSNDETLLSAVASALHTSSAPITGQVSAAVEKNPAVWLNTSQPLCKAFIVTDEDIRKQEERVQQVRKKLEEALMADILSRAADTEEMDIEMDSGDEA | binds | –
2 | MBD2 ([…]) (domain or fragment, also called untagged MBD2; source: HEK293F, co-transfected, in lysate; co-purified (FLAG resin, TEV protease, Superose 6)) not shown | – | 0.5 MBD2 per MTA1 (HDAC1:MTA1:MBD2 2:2:1)
